Results taken from article PMC10668032.
This is one part of the list. At the low end of the ranking, values are background and their order means little.

Target: SIX1-Q177R homeodomain (UniProt Q15475)
Experiment: universal protein binding microarray
Conditions: Universal all-10-mer PBM (8x60K, AMADID 030236), 300 nM GST-tagged protein, Alexa Fluor 488 anti-GST; buffer, salt, pH and temperature not stated; high values mean tight binding; most listed sequences are background and not binding sites; double strand, one strand shown

Sequence	binding signal [E-score]
AGCGCAAA	-0.0983
ACCAACGT	-0.0189
GAGCCTGC	-0.185
ACTCGCAG	0.0165
AAGCGTCA	0.0298
GAGAGCGA	-0.0819
CTGATACA	0.24
CGGCTGGC	-0.21
GCTAGCAC	0.07
AAGCACCA	0.24
CTCTTTAA	-0.134
GGTCCCTA	-0.129
AGAGCTTG	-0.023
CCACCAGC	-0.141
ACTTCATA	-0.0914
AAAGCACC	0.0683
CGCTCCGC	-0.251
CATTCCTA	-0.178
CACATATC	0.0997
CGTAGCGC	-0.211
AATTTTCA	-0.0769
AGCGGTGC	0.0934
CATTTTGC	-0.223
GCTATATA	-0.0186
AGGGGTGC	0.221

Sequence	binding signal [E-score]
CAACTATC	-0.333
ATGCGCGA	-0.213
ATTCTCAC	-0.0562
GAAATTTC	-0.28
ACCCGTCT	0.178
GGCTGGGA	-0.0856
GTCGTCAC	-0.0501
CCAACGAC	-0.0446
CACGGGAG	0.17
CGCCGCCC	0.0362
TAATGGGA	-0.169
CAAACCGA	-0.0212
CAGAGGAC	0.124
GACGAATA	-0.122
ACCCATAT	0.103
CAACTTCA	0.0829
CCGGCAAC	0.0504
AGTAATTC	-0.0639
CTCTGACC	-0.0793
AAGAAGGC	-0.241
TGACACCA	0.491
ACGTGGTC	-0.152
CATGCCGA	-0.241
AACTCTTA	0.0611
CCTCTATC	0.103

Sequence	binding signal [E-score]
GCGCTGAC	-0.189
TAATCGAA	-0.0754
AAGTATGT	-0.117
CGGAGGCC	-0.128
CCGCCTTC	-0.182
CCGGCTCG	-0.0238
CTTGAGTA	-0.06
GACATCTA	-0.2
AGCGCCTG	-0.024
ATAACACC	0.479
GGACGCAC	-0.0442
ACACAGTA	0.149
CACCTTAG	0.286
GCAACCGC	-0.0295
AATACACA	0.188
TAACAGCA	-0.134
ACCGATTC	-0.0142
ACTGAACT	-0.0396
AAAGTAAA	-0.0908
GCCCACCA	-0.0101
CATTGATA	0.0545
CTTGCCTA	-0.334
GACCAGGC	-0.048
GGTCTAAC	-0.123
ACAAGTTG	0.0381

Sequence	binding signal [E-score]
CATCTGAC	0.236
AGGGGCTC	-0.0099
ATAATCAC	0.0171
ACCTGGTC	0.0739
TGATCGCA	-0.122
AGTTACAT	-0.177
ATACTCTC	0.158
AAGACTTG	-0.178
ACTGGGCA	-0.116
AAGTCAGC	-0.329
GAGCCGAA	-0.284
CCTACAGC	-0.146
CTTGACTA	-0.197
CAGTCCTC	-0.267
CGATTCGC	-0.0551
TCATGCCA	-0.23
CTAGTAGA	-0.211
GATTTGCC	-0.183
TAGACATA	-0.128
GAATTTAC	-0.148
ATTTGCAG	-0.118
ATTTACGC	-0.0258
CGCGTCGA	0.0185
CAGAACAC	0.381
AAAATAAC	0.0114

Sequence	binding signal [E-score]
AAAGATTC	-0.0918
AGATCCCA	0.0702
GTGAATCA	-0.01
ACTTCAAG	0.14
ACTACTCA	-0.11
ATGGGAAA	-0.136
ACAGGGAC	-0.17
AATATGTC	-0.0328
ACATGAAG	-0.139
ACTGATTC	0.0282
ACATGAGA	0.0216
CGTTTTTC	0.0383
CCCGTAAC	-0.00184
GAAACAGA	-0.357
CACAGCGC	-0.0668
CGTCCCAG	0.0023
GCATTAGA	-0.227
AAGCTTGG	-0.332
GCCGTCAA	-0.181
AAATTGTG	0.0835
CAAAGACC	-0.265
AGACCCCT	0.155
ATATGCAG	0.00738
AAGTATAT	-0.184
GACTTCCC	-0.245

Sequence	binding signal [E-score]
GCCTAGCA	-0.157
AGCGTTTA	-0.138
AATCCCTC	-0.0887
CCGCAATC	-0.156
AGGGCTGC	-0.174
ATCATGAC	0.0301
CCAGAGAC	-0.0693
ACGGTTCT	-0.106
GCAAGCGA	-0.149
AACGACGC	0.0714
GGAAGGAC	-0.168
TCTCCGCA	-0.271
ACTTCCGC	-0.175
CCAGGTTA	0.0783
TGACTGCA	-0.0771
ATGCTAAA	-0.131
ACCAAGTC	0.0646
ACAAGTTC	-0.231
ATCATAGG	-0.164
ATATTTTG	-0.188
ACTCTTTC	-0.0864
GCTATAGC	-0.22
GTGTGCCA	0.242
ATAGCGTC	-0.00797
GGTAAAGA	0.118

Sequence	binding signal [E-score]
GAAACCTA	-0.0838
GGGAACCC	0.184
CAGATGTC	-0.175
CCAGTTGC	-0.0315
ACTATAGG	-0.0382
GCCTTTCC	-0.106
GGGCTGTA	-0.0971
GAGTACGA	0.0959
CCATCTTC	-0.0692
ACCTACAG	0.121
CCTATTTC	-0.000375
AAAGGTCA	-0.0971
AACGTTAA	-0.109
CTGGCGAA	-0.174
ATTACCGA	0.0798
ATACCCGA	0.241
ATCTACAA	-0.175
ACATTCAA	-0.191
CCGCTAGC	-0.264
ACAGTCAC	-0.197
GTTTACTA	0.0676
ATCGGGCC	-0.0815
